Reference: PubChem BioAssay AID894 (National Center for Advancing Translational Sciences (NCATS), 2007)
Among all 150,000 compounds or so, about 6,500 (4.3%) were called active. The inconclusive results got no clear call from the source; some entries with a clear call stand among them for comparison. The call rests on the fitted dose curve; in most records, active means well fitted inhibition curve with a large enough effect (not every such curve was filed as active); inconclusive means small, poorly fitted or top-dose-only effect, or another doubt; inactive means no such curve, though single readings can be large or run the other way. Potencies of inconclusive entries are left out as doubtful fits.

The compounds below were run against 15-hydroxyprostaglandin dehydrogenase [NAD(+)] (Homo sapiens) (UniProt P15428) (assay: qHTS Assay for Inhibitors of HPGD (15-Hydroxyprostaglandin Dehydrogenase)). Conditions: purified HPGD, NADH fluorescence kinetic, PGE2 substrate; activity change, negative = inhibition: active compounds read low.
Chain of UniProt P15428 (P15428 whole entry, looked up): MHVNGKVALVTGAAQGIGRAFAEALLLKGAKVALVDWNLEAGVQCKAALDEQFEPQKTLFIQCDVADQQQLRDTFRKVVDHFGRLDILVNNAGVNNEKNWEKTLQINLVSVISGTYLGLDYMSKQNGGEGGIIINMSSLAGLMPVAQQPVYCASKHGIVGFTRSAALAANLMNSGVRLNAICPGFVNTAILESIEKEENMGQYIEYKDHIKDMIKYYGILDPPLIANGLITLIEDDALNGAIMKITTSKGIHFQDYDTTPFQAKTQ
Summary of the method: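 NADH formation kinetics: reaction with 30 uM PGE2 and 1 mM NAD+ (final), 20 nM enzyme, Tris-HCl pH 8 with Tween 20, after 15 min compound preincubation at room temperature. Fluorescence change, last versus first of five reads.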
On the % scale 0 is the no-effect control and ±100 the full control effect; potency means the concentration at half of the fitted maximal effect; tags describe the fitted curve by direction and shape.

| SMILES | activity change, negative = inhibition | Potency |
| --- | --- | --- |
| COc1ccccc1/C=C/C(=O)NC(=S)Nc1ccc(S(=O)(=O)N(C)c2ccccc2)cc1 | inactive: -21.9% |  |
| CCOC(=O)c1ccc2c(c1)nc(-c1ccc(F)cc1)c1nccn12 |  | inconclusive [inhibitor, full curve] |
| Nc1cccc2nc3ccccc3cc12 |  | inconclusive [inhibitor, partial curve] |
| CCc1nc2ccccc2c(C(=O)OCC(=O)Nc2cccc(S(=O)(=O)N3CCOCC3)c2)c1C |  | inconclusive [inhibitor, single point] |
| COc1ccc(S(=O)(=O)N2CCN(C(=O)NC3CCCCC3)CC2)cc1OC | inactive: -12.7% |  |
| Nc1c(Cl)cc(Cl)cc1C(=O)OCC(=O)N1CCCC1 |  | inconclusive [inhibitor, partial curve] |
| O=S(=O)(c1ccc(Br)cc1)N1CCN(S(=O)(=O)c2ccc(Br)cc2)CC1 | inactive: 1.32% |  |
| CC(=O)[C@H](C(=N)C#N)C(=O)Nc1ccccc1 | inactive: -10.6% |  |
| CC(C)c1nc(NCc2ccccc2)c(C#N)c2c1CCCC2 |  | inconclusive [inhibitor, single point] |
| CCN(c1ccc(NC(=O)CSc2nnc3nc(C)cc(C)n23)cc1)C(C)C |  | inconclusive [inhibitor, partial curve] |
| Cc1c(C)n(C)c2ccc(C(=O)Nc3cccc4ccccc34)cc12 |  | inconclusive [inhibitor, partial curve] |
| O=C(CC(c1ccccc1)c1ccccc1O)NCc1ccccc1Cl (centres undefined) |  | active: 15.8 µM |
| Cc1cc(=O)[nH]c(SCc2nc3ncccn3c2Br)n1 |  | inconclusive [inhibitor, partial curve] |
| Cc1ccc(C(=O)Nc2nnc(-c3cccs3)s2)cc1C |  | inconclusive [inhibitor, single point] |
| Cc1nc2[nH]c(=S)[nH]c2cc1Br |  | inconclusive [inhibitor, partial curve] |
| N#CCCn1c(=O)c(-c2ccccc2)nc2cnc(OCc3ccccc3)nc21 |  | inconclusive [inhibitor, partial curve] |
| COc1ccc(/C=C/C(=O)c2ccccc2)cc1Cn1nnc2ccccc21 |  | active: 15.8 µM |
| CC1CCN(S(=O)(=O)c2ccc(C(=O)Nc3sccc3C(N)=O)cc2)CC1 |  | inconclusive [inhibitor, partial curve] |
| COc1ccc(-c2nc3cc(NC(=O)Cc4ccc(OC)c(OC)c4)ccc3o2)cc1 |  | inconclusive [inhibitor, partial curve] |
| CC(=O)Nc1ccc(OC(=O)c2cccs2)cc1 |  | inconclusive [inhibitor, partial curve] |
| COc1ccc(C(=O)N2CCC3(CC2)CN(c2ccccn2)C3)cc1 |  | inconclusive [inhibitor, partial curve] |
| Cn1nnc2sc3c(c2c1=O)CCCC3 |  | active: 31.6 µM |
| O=C(Nc1nnc(-c2ccncc2)s1)C1CCCO1 (centres undefined) |  | inconclusive [inhibitor, partial curve] |

| SMILES | activity change, negative = inhibition | Potency |
| --- | --- | --- |
| CN(C)C(/C=C/Nc1ccc(C#N)cc1)=C(C#N)C#N |  | inconclusive [inhibitor, partial curve] |
| Cc1ccc(NC(=O)COc2ccc(/C=N/NC(=O)CSCc3ccccc3)cc2)cc1 |  | inconclusive [inhibitor, single point] |
| CCOC(=O)c1ccccc1NC(=O)c1ccc(NS(C)(=O)=O)cc1 |  | active: 15.8 µM |
| COc1ccc2nc(/N=C(\N)NC(=O)C(C)(C)C)nc(C)c2c1 |  | inconclusive [inhibitor, partial curve] |
| Cc1nnsc1C(=O)Nc1cc(Cl)ccc1Cl | inactive: -5.35% |  |
| COc1cccc(NC(=O)CSc2nc3n[nH]c(C)c3c(=N)n2-c2cccc(OC)c2)c1 |  | inconclusive [inhibitor, partial curve] |
| NC(=O)c1nn(-c2ccccc2)nc1NC(=O)Cn1nnc(-c2ccccc2)n1 |  | inconclusive [inhibitor, partial curve] |
| COc1cc(SC#N)ccc1N=Cc1c(C)[nH]n(-c2cccc3ccccc23)c1=O |  | inconclusive [inhibitor, partial curve] |
| Cc1cc(C)nc(SCC(=O)N/N=C/c2cccc([N+](=O)[O-])c2)n1 |  | inconclusive [inhibitor, single point] |
| CN(c1ccccc1)S(=O)(=O)c1ccc(C(=O)OCC(=O)NCc2ccco2)cc1 |  | inconclusive [inhibitor, single point] |
| CSc1ccccc1C(=O)NCc1ccc2c(c1)OCO2 |  | active: 0.501 µM |
| Cc1cc(C(=O)OCC(=O)Nc2cc(C(F)(F)F)ccc2N2CCOCC2)c(C)o1 | inactive: -5.93% |  |
| Cc1cc(NCCN2CCOCC2)n2c(nc3ccccc32)c1C#N |  | inconclusive [inhibitor, partial curve] |
| CC(=O)N1CCCc2cc(S(=O)(=O)N3CCN(c4ccccn4)CC3)ccc21 |  | inconclusive [inhibitor, partial curve] |
| Cc1ccc(-c2ccc(=O)n(CCC(=O)NCCN3CCCCC3C)n2)cc1 (centres undefined) | inactive: -1.2% |  |
| COC(=O)c1cc(COc2ccc3c4c(c(=O)oc3c2)CCCC4)c(C)o1 |  | inconclusive [inhibitor, partial curve] |
| O=C(Nc1ccccc1)N1CCCC2(CCN(C(=O)c3cccc(F)c3)CC2)C1 | inactive: -5.71% |  |
| COc1ccc(OC)c(C2C(C#N)=C(N)Oc3cc(N)ccc32)c1 (centres undefined) | inactive: -7.12% |  |
| COc1ccc(CCNS(=O)(=O)c2ccc3c(c2)CCN3C(=O)C2CC2)cc1OC | inactive: -3.93% |  |
| O=C(Oc1ccccc1/C=C\C(=O)c1cc2ccccc2o1)c1cccc(F)c1 |  | inconclusive [inhibitor, partial curve] |
| C=CCN1C(=O)C(Cc2ccc(Br)cc2)S/C1=N\N=C\c1ccco1 (centres undefined) | inactive: -2.8% |  |
| Cc1onc(-c2ccccc2)c1-c1ccc(S(N)(=O)=O)cc1 | inactive: -10.7% |  |
| CCOC(=O)c1c(C)nc2sc(C(=O)Nc3ccccc3)c(N)c2c1-c1ccc(OC)cc1 |  | inconclusive [inhibitor, single point] |

| SMILES | activity change, negative = inhibition | Potency |
| --- | --- | --- |
| COC(CNC(=O)c1ccc2nc(-c3cccs3)c(-c3cccs3)nc2c1)OC |  | inconclusive [inhibitor, partial curve] |
| CCOC(=O)c1sc2nc(C(C)C)c3c(c2c1N)CCC3 |  | inconclusive [inhibitor, partial curve] |
| Brc1ccc(-c2cn3cccnc3n2)cc1 |  | inconclusive [inhibitor, partial curve] |
| CC1O[C@@H](O[C@@H]2C(O)C[C@H](O[C@@H]3C(O)C[C@@H](OC4CC[C@@]5(C)C6CC(O)[C@@]7(C)C(C8=CC(=O)OC8)CC[C@@]7(O)C6CC[C@@H]5C4)OC3C)OC2C)CC(O)[C@H]1O (some centres undefined) | inactive: -11.7% |  |
| CCCC1C(C(=O)OCC)=C(C)NC(C)=C1C(=O)OCC |  | inconclusive [inhibitor, partial curve] |
| CSc1nc2ncc3c(n2n1)CC1c2ccccc2CCN1C3=O (centres undefined) |  | inconclusive [inhibitor, partial curve, poor fit] |
| CC(=O)Nc1ccc(C2=NN(Cc3nnc(-c4ccccc4)o3)C(=O)SC2)cc1 |  | active: 5.01 µM |
| CCn1c(=O)c(C(=O)Nc2ccccc2C)c(O)c2ccccc21 |  | inconclusive [inhibitor, partial curve] |
| CCC[C@@H]1C[C@@]1(CCC)C(NC(=O)c1ccccc1)c1cccc(Cl)c1 (some centres undefined) | inactive: -5.51% |  |
| COc1ccc(-c2oc3cc(O[C@@H]4OC(CO)C(O)C(O)C4O)c(OC)c(O)c3c(=O)c2OC)cc1O (some centres undefined) |  | inconclusive [inhibitor, partial curve] |
| COC(=O)CSc1nc2nc(C)c(Br)cc2[nH]1 | inactive: -17.3% |  |
| Cc1nnc(SCC(=O)N/N=C/c2ccc(-c3ccc(C)c(Cl)c3)o2)s1 |  | inconclusive [inhibitor, partial curve] |
| CN1CCN(c2nc(-c3cc4ccccc4o3)cs2)CC1 |  | inconclusive [inhibitor, single point] |
| Cc1sc2nc(SCC(=O)N3CCCCC3)[nH]c(=O)c2c1C |  | active: 15.8 µM |
| O=C(N1CCOCC1)n1cnc2ccccc21 | inactive: -9.18% |  |
| Cc1ccsc1/C=N/n1c(COc2ccccc2)n[nH]c1=S |  | active: 14.1 µM |
| COc1ccccc1CNC(=O)Cc1ccc(Br)cc1 | inactive: -25.6% |  |
| COc1ccc(OC)c(NC(=O)c2ccccc2NS(=O)(=O)c2cccc3cccnc23)c1 |  | inconclusive [inhibitor, partial curve] |
| O=c1cc(/C=C/c2ccccc2)oc2c1ccc1ccccc12 |  | inconclusive [inhibitor, partial curve] |
| COC(=O)c1ccc(C(=O)OC)c(N)c1 |  | inconclusive [inhibitor, partial curve] |
| CCCC(=O)C1=C(O)C(C(=O)OC)C(C)(C)CC1=Nc1cccc2ccccc12 (centres undefined) | inactive: -21.4% |  |
| O=c1c2ccccc2nc2n1CCC2 | inactive: -15.2% |  |
| O=C(N/N=C/c1cccc(OC(=O)c2ccc3c(c2)OCO3)c1)c1cncc(Br)c1 |  | inconclusive [inhibitor, single point] |
